Data as given in a compilation of properties of binary mixtures (doi:10.1007/s10953-005-9002-0).
The densities may have been worked out from excess volumes.

Assay: xn = mol fraction of the nth substance listed
Conditions: 298.15 K, 101 kPa

COS(=O)(=O)[O-].Cn1cc[n+](C)c1 + CCCCO
Conditions	mass density [kg/m3]
x2 = 0.0302	1325.3
x2 = 0.2341	1259.2
x2 = 0.3366	1218.2
x2 = 0.438	1174.2
x2 = 0.4897	1151.1
x2 = 0.5424	1122.8
x2 = 0.6551	1060.7
x2 = 0.7571	997.5
x2 = 0.8272	948.9
x2 = 0.9417	860.9

CCCC[n+]1ccn(C)c1.COS(=O)(=O)[O-] + CCCCCCCCCCO
Conditions	mass density [kg/m3]
x2 = 0.0431	1196.6
x2 = 0.3357	1087.2
x2 = 0.4521	1043.1
x2 = 0.5434	1008
x2 = 0.8526	887.5
x2 = 0.9397	852.8

CCCC[n+]1ccn(C)c1.COS(=O)(=O)[O-] + CCCCCCO
Conditions	mass density [kg/m3]
x2 = 0.0286	1202
x2 = 0.1431	1172.5
x2 = 0.2515	1141.9
x2 = 0.3299	1117.9
x2 = 0.4374	1082.2
x2 = 0.5401	1044.5
x2 = 0.6387	1004.6
x2 = 0.7298	964
x2 = 0.8247	917.4

COS(=O)(=O)[O-].Cn1cc[n+](C)c1 + O
Conditions	mass density [kg/m3]
x2 = 0.0624	1326.3
x2 = 0.1604	1322.1
x2 = 0.2705	1316.1
x2 = 0.3586	1309.9
x2 = 0.4629	1300.4
x2 = 0.5766	1290.3
x2 = 0.6502	1272.5
x2 = 0.7723	1237.2
x2 = 0.9139	1114.3
x2 = 0.9376	1114.5
x2 = 0.9794	1044.3

CCCCCCCCOS(=O)(=O)[O-].CCCC[n+]1ccn(C)c1 + CCCCO
Conditions	mass density [kg/m3]
x2 = 0.1676	1053.8
x2 = 0.2741	1042.8
x2 = 0.3377	1035.1
x2 = 0.4389	1020.8
x2 = 0.5712	997
x2 = 0.6553	977.5
x2 = 0.8803	893.5
x2 = 0.9202	870.2

CCCC[n+]1ccn(C)c1.COS(=O)(=O)[O-] + CCO
Conditions	mass density [kg/m3]
x2 = 0.1594	1193.5
x2 = 0.3597	1158.8
x2 = 0.4371	1141.8
x2 = 0.5412	1112.9
x2 = 0.6552	1071.6
x2 = 0.7651	1016.8
x2 = 0.8779	935.1
x2 = 0.9287	884.7

CCCCCCCCOS(=O)(=O)[O-].CCCC[n+]1ccn(C)c1 + CCCCCCO
Conditions	mass density [kg/m3]
x2 = 0.2503	1038.8
x2 = 0.3348	1026.4
x2 = 0.4352	1009.5
x2 = 0.5425	988.4
x2 = 0.6343	966.9
x2 = 0.74	936.5
x2 = 0.9001	873.1

CCCC[n+]1ccn(C)c1.COS(=O)(=O)[O-] + CCCCO
Conditions	mass density [kg/m3]
x2 = 0.0378	1205.8
x2 = 0.1375	1186.4
x2 = 0.2365	1164.4
x2 = 0.3337	1139.9
x2 = 0.4397	1109.1
x2 = 0.5634	1066.3
x2 = 0.6359	1036.9
x2 = 0.7317	992.1
x2 = 0.8419	929.3

CCCCCCCCOS(=O)(=O)[O-].CCCC[n+]1ccn(C)c1 + CO
Conditions	mass density [kg/m3]
x1 = 0.0088	812.3
x2 = 0.092	1065.5
x2 = 0.2588	1059.3
x2 = 0.3544	1054.3
x2 = 0.4665	1045.9
x2 = 0.5963	1032.1
x2 = 0.6915	1015.7
x2 = 0.8971	933.4

COS(=O)(=O)[O-].Cn1cc[n+](C)c1 + CO
Conditions	mass density [kg/m3]
x2 = 0.0802	1318.3
x2 = 0.1837	1302
x2 = 0.2935	1282.5
x2 = 0.5031	1229.3
x2 = 0.593	1197.8
x2 = 0.6949	1148.9
x2 = 0.8712	1005.1
x2 = 0.934	919.8

CCCC[n+]1ccn(C)c1.COS(=O)(=O)[O-] + CO
Conditions	mass density [kg/m3]
x2 = 0.0692	1202.9
x2 = 0.1777	1192.9
x2 = 0.2629	1182.6
x2 = 0.3668	1169.5
x2 = 0.4635	1153.2
x2 = 0.5662	1130.2
x2 = 0.6573	1102.5
x2 = 0.7654	1054.8
x2 = 0.845	1002.8

CCCC[n+]1ccn(C)c1.COS(=O)(=O)[O-] + O
Conditions	mass density [kg/m3]
x2 = 0.0217	1208.8
x2 = 0.1385	1206.5
x2 = 0.4356	1197.9
x2 = 0.5428	1192.3
x2 = 0.7338	1172.8
x2 = 0.8577	1140.9
x2 = 0.9502	1079.4

CCCCCCCCOS(=O)(=O)[O-].CCCC[n+]1ccn(C)c1 + CCCCCCCCCCO
Conditions	mass density [kg/m3]
x2 = 0.2496	1025.9
x2 = 0.3414	1008.3
x2 = 0.4568	984.6
x2 = 0.665	936.5
x2 = 0.7454	915.2
x2 = 0.9373	852.6

COS(=O)(=O)[O-].Cn1cc[n+](C)c1 + CCO
Conditions	mass density [kg/m3]
x2 = 0.1546	1303.2
x2 = 0.2577	1278.2
x2 = 0.3537	1249.3
x2 = 0.4987	1192.5
x2 = 0.5583	1172.9
x2 = 0.6463	1126.3
x2 = 0.7622	1041.9
x2 = 0.8475	975.9
x2 = 0.9489	865.8

CCCCCCCCOS(=O)(=O)[O-].CCCC[n+]1ccn(C)c1 + CCCCCCCCO
Conditions	mass density [kg/m3]
x2 = 0.0492	1063.6
x2 = 0.1546	1048.2
x2 = 0.2584	1031.9
x2 = 0.4542	996.1
x2 = 0.5476	976.2

CCCC[n+]1ccn(C)c1.COS(=O)(=O)[O-] + CCCCCCCCO
Conditions	mass density [kg/m3]
x2 = 0.0395	1200.1
x2 = 0.1421	1167.5
x2 = 0.2358	1136.4
x2 = 0.3345	1102
x2 = 0.4344	1065.9
x2 = 0.5442	1024
x2 = 0.6461	983.2
x2 = 0.7249	950.2
x2 = 0.9227	861.9
